{"source": "paper PMC9911399", "about": "“Two distinct binding modes provide the RNA-binding protein RbFox with extraordinary sequence specificity”", "binders": {"B1": {"name": "GCGCCUA (DNA:RNA)", "RNA": "GGGAGACCGGAAUUCAGAUUGUCCGCGCCUAUUAAAUCCCGUCGUAGCCACCA", "DNA 1": "CAATCTGAATTCCGGTCTCCC", "DNA 2": "TGGTGGCTACGACGGGATT"}, "B2": {"name": "AUCCAAC (DNA:RNA)", "RNA": "B1 RNA with G25A, C26U, G27C, C29A, U30A, A31C", "DNA 1": "CAATCTGAATTCCGGTCTCCC", "DNA 2": "TGGTGGCTACGACGGGATT"}, "B3": {"name": "UUAACCG (DNA:RNA)", "RNA": "B1 RNA with G25U, C26U, G27A, C28A, U30C, A31G", "DNA 1": "CAATCTGAATTCCGGTCTCCC", "DNA 2": "TGGTGGCTACGACGGGATT"}, "B4": {"name": "GUAAGCU (DNA:RNA)", "RNA": "B1 RNA with C26U, G27A, C28A, C29G, U30C, A31U", "DNA 1": "CAATCTGAATTCCGGTCTCCC", "DNA 2": "TGGTGGCTACGACGGGATT"}, "B5": {"name": "GUUCAUU (DNA:RNA)", "RNA": "B1 RNA with C26U, G27U, C29A, A31U", "DNA 1": "CAATCTGAATTCCGGTCTCCC", "DNA 2": "TGGTGGCTACGACGGGATT"}, "B6": {"name": "UUCGUGG (DNA:RNA)", "RNA": "GGGAGACCGGAAUUCAGAUUGUCCUUCGUGGUUAAAUCCCGUCGUAGCCACCA", "DNA 1": "CAATCTGAATTCCGGTCTCCC", "DNA 2": "TGGTGGCTACGACGGGATT"}, "B7": {"name": "AACCGUC (DNA:RNA)", "RNA": "B1 RNA with G25A, C26A, G27C, C29G, A31C", "DNA 1": "CAATCTGAATTCCGGTCTCCC", "DNA 2": "TGGTGGCTACGACGGGATT"}, "B8": {"name": "UUCCAGG (DNA:RNA)", "RNA": "B6 RNA with G28C, U29A", "DNA 1": "CAATCTGAATTCCGGTCTCCC", "DNA 2": "TGGTGGCTACGACGGGATT"}, "B9": {"name": "AAGCACU (DNA:RNA)", "RNA": "B1 RNA with G25A, C26A, C29A, U30C, A31U", "DNA 1": "CAATCTGAATTCCGGTCTCCC", "DNA 2": "TGGTGGCTACGACGGGATT"}, "B10": {"name": "CUAUAGG (DNA:RNA)", "RNA": "B6 RNA with U25C, C27A, G28U, U29A", "DNA 1": "CAATCTGAATTCCGGTCTCCC", "DNA 2": "TGGTGGCTACGACGGGATT"}, "B11": {"name": "UUUGGGG (DNA:RNA)", "RNA": "B6 RNA with C27U, U29G", "DNA 1": "CAATCTGAATTCCGGTCTCCC", "DNA 2": "TGGTGGCTACGACGGGATT"}, "B12": {"name": "CCCGGCU (DNA:RNA)", "RNA": "B6 RNA with U25C, U26C, U29G, G30C, G31U", "DNA 1": "CAATCTGAATTCCGGTCTCCC", "DNA 2": "TGGTGGCTACGACGGGATT"}, "B13": {"name": "AUAUGAA (DNA:RNA)", "RNA": "B1 RNA with G25A, C26U, G27A, C28U, C29G, U30A", "DNA 1": "CAATCTGAATTCCGGTCTCCC", "DNA 2": "TGGTGGCTACGACGGGATT"}, "B14": {"name": "UGUCGUC (DNA:RNA)", "RNA": "B1 RNA with G25U, C26G, G27U, C29G, A31C", "DNA 1": "CAATCTGAATTCCGGTCTCCC", "DNA 2": "TGGTGGCTACGACGGGATT"}, "B15": {"name": "ACCUGUU (DNA:RNA)", "RNA": "B1 RNA with G25A, G27C, C28U, C29G, A31U", "DNA 1": "CAATCTGAATTCCGGTCTCCC", "DNA 2": "TGGTGGCTACGACGGGATT"}, "B16": {"name": "GAGCUCG (DNA:RNA)", "RNA": "B1 RNA with C26A, C29U, U30C, A31G", "DNA 1": "CAATCTGAATTCCGGTCTCCC", "DNA 2": "TGGTGGCTACGACGGGATT"}, "B17": {"name": "CGACUGC (DNA:RNA)", "RNA": "B6 RNA with U25C, U26G, C27A, G28C, G31C", "DNA 1": "CAATCTGAATTCCGGTCTCCC", "DNA 2": "TGGTGGCTACGACGGGATT"}, "B18": {"name": "UAAAAAC (DNA:RNA)", "RNA": "B6 RNA with U26A, C27A, G28A, U29A, G30A, G31C", "DNA 1": "CAATCTGAATTCCGGTCTCCC", "DNA 2": "TGGTGGCTACGACGGGATT"}, "B19": {"name": "GGGUCCA (DNA:RNA)", "RNA": "B1 RNA with C26G, C28U, U30C", "DNA 1": "CAATCTGAATTCCGGTCTCCC", "DNA 2": "TGGTGGCTACGACGGGATT"}, "B20": {"name": "AAACACC (DNA:RNA)", "RNA": "B1 RNA with G25A, C26A, G27A, C29A, U30C, A31C", "DNA 1": "CAATCTGAATTCCGGTCTCCC", "DNA 2": "TGGTGGCTACGACGGGATT"}}, "note": "Substitutions are numbered along the chain they refer to; changes in the protein carry UniProt numbers. The list shows a part of the results.", "data": [{"target": "T1, RBFOX1 RRM RbFoxmut (Fox-RRM*) (Homo sapiens, UniProt Q9NWB1 109-208, R118D;E147R;N151S;E152T)", "T1 sequence": "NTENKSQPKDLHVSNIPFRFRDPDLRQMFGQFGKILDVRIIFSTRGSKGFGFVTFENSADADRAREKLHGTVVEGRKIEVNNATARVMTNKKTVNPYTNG", "assay": "EMSA; HiTS-Eq, 1 nM pool, 10 min; buffer printed only for the single-RNA assays: 10 mM Tris pH 7.5, 150 mM NaCl, 3.4 mM EDTA, 0.001% NP-40, 30 C", "conditions": "tags: His6 N-terminal (pET28a); label: 5' 32P", "summary_of_the_method": "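Relative association constants, normalised to the cognate motif, were derived by comparing read counts of each RNA species with those of the control reaction. The RNA sequenced was the free fraction, separated by 8% native PAGE after a 10 min equilibration in 50 µL of 1 nM 5′-radiolabelled RNA (7 randomized nucleotides) with increasing concentrations of purified wild-type or mutant RbFox RRM.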", "values": [{"binder": "B1", "binding signal": "0.0815 KA relative to UGCAUGU"}, {"binder": "B2", "binding signal": "0.101 KA relative to UGCAUGU"}, {"binder": "B3", "binding signal": "0.119 KA relative to UGCAUGU"}, {"binder": "B4", "binding signal": "0.0747 KA relative to UGCAUGU"}, {"binder": "B5", "binding signal": "0.0749 KA relative to UGCAUGU"}, {"binder": "B6", "binding signal": "0.099 KA relative to UGCAUGU"}, {"binder": "B7", "binding signal": "0.0442 KA relative to UGCAUGU"}, {"binder": "B8", "binding signal": "0.081 KA relative to UGCAUGU"}, {"binder": "B9", "binding signal": "0.0773 KA relative to UGCAUGU"}, {"binder": "B10", "binding signal": "0.0751 KA relative to UGCAUGU"}, {"binder": "B11", "binding signal": "0.0732 KA relative to UGCAUGU"}, {"binder": "B12", "binding signal": "0.0941 KA relative to UGCAUGU"}, {"binder": "B13", "binding signal": "0.135 KA relative to UGCAUGU"}, {"binder": "B14", "binding signal": "0.119 KA relative to UGCAUGU"}, {"binder": "B15", "binding signal": "0.114 KA relative to UGCAUGU"}, {"binder": "B16", "binding signal": "0.135 KA relative to UGCAUGU"}, {"binder": "B17", "binding signal": "0.103 KA relative to UGCAUGU"}, {"binder": "B18", "binding signal": "0.0581 KA relative to UGCAUGU"}, {"binder": "B19", "binding signal": "0.124 KA relative to UGCAUGU"}, {"binder": "B20", "binding signal": "0.0523 KA relative to UGCAUGU"}]}]}
